# The supplement of paper PMC7826260
# This is one part of the list. Viral Rep nickase domains cut single-stranded DNA in vitro at 3 µM enzyme and 37 °C for 1 h; the strands have 90 letters, of which the middle is given. A value is the log2 ratio of uncut reads to the pool without enzyme; more negative means more cut, near 0 not cut, and no call is made. Shares of all reads are compared; uncut strands gain when others are lost, and binding without cutting may add a little.
# Test system: T1, Rep nickase domain of tomato golden mosaic virus
# T1 sequence (residues 1-124, tag not shown): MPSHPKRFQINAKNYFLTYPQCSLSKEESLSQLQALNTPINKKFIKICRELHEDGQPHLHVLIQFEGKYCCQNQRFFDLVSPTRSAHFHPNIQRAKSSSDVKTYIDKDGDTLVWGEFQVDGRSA
# Assay: uncleaved DNA left, log2 of reads against the no-enzyme library (log2 ratio); higher = less cleavage (more negative = more Rep cleavage of the k-mer); sequences stand for … in CTCGTCCG…ACCGGAGA
# Method: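 A pool of 90-nt single-stranded DNAs with seven random bases just before the constant AC of the nick site (name = the seven bases) was cut by 3 µM recombinant His6-SUMO-tagged Rep nickase domain (300 nM DNA, 50 mM HEPES pH 8.0, 50 mM NaCl, 1 mM MnCl2, 1 h, 37 °C, three replicates). Uncut DNA was amplified and sequenced.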
row,Sequence,uncleaved DNA left (log2)
1,GCTCCTG,0.00987
2,CGCAGGA,-0.0993
3,ATACAGA,0.0214
4,TCAATAT,0.0317
5,TCGGAAT,0.174
6,TCTAGGC,-0.0182
7,TTTTATA,0.0298
8,AGCACTG,0.186
9,ACTTAAC,0.0794
10,AGGTAAG,0.015
11,CGTACAA,0.075
12,GTGCCAT,0.00999
13,GCGACAA,0.0549
14,CCCGGGC,0.0642
15,TTATCAT,-0.09
16,AGATATG,-0.0537
17,GAGTACA,0.0399
18,CGTATGT,-0.2
19,TAAATAC,0.0191
20,AACATAC,0.0179

row,Sequence,uncleaved DNA left (log2)
1,TCTGTGG,0.0364
2,GGCTTTT,-0.00148
3,CGAGGCA,0.121
4,TACATAA,-0.0645
5,AATGGAT,0.072
6,TAATAGA,-0.139
7,CAGAACC,0.0519
8,TGACTGA,-0.104
9,AGCAGTT,0.121
10,GAAGTTG,-0.0414
11,TTTCATA,-0.0597
12,TCCTGCG,-0.0655
13,AGCCCCC,-0.0235
14,TGGGTGT,-0.107
15,CGTTAAT,-0.095
16,TCCCCAT,-0.0147
17,GACATCC,-0.144
18,GTCAGTG,0.113
19,GGCTAGC,0.0231
20,TACCGCC,-0.085
